{"source": "the antibiotic and cytotoxicity screens of Wong et al. (2023)", "key": {"[1]": {"test_system": "HSkMC (human skeletal muscle cells)", "test": "cytotoxicity call (relative viability < 0.9)", "conditions": "10 µM"}, "[2]": {"test_system": "S. aureus RN4220", "test": "growth inhibition call (relative growth <= 0.2)", "conditions": "50 µM"}}, "note": "This is one part of the list."}
{"smiles": "COc1ccccc1NC(=O)N(C)C[C@@H]1Oc2ncc(C#CCN(C)C)cc2C(=O)N([C@@H](C)CO)C[C@@H]1C", "values": [{"measurement": "cytotoxicity call", "setting": "[1]", "value": "inactive"}, {"measurement": "growth inhibition call", "setting": "[2]", "value": "inactive"}]}
{"smiles": "COC(=O)C[C@@H]1CC[C@H]2[C@H](COc3ccc(NS(=O)(=O)c4ccccc4Cl)cc3C(=O)N2C)O1", "values": [{"measurement": "cytotoxicity call", "setting": "[1]", "value": "inactive"}, {"measurement": "growth inhibition call", "setting": "[2]", "value": "inactive"}]}
{"smiles": "C[C@H](CO)N1C[C@H](C)[C@H](CN(C)C(=O)CN(C)C)Oc2cc(C#Cc3ccccc3)ccc2S1(=O)=O", "values": [{"measurement": "cytotoxicity call", "setting": "[1]", "value": "inactive"}, {"measurement": "growth inhibition call", "setting": "[2]", "value": "active"}]}
{"smiles": "CC(C)NC(=O)Nc1ccc2c(c1)C(=O)N([C@@H](C)CO)C[C@@H](C)[C@@H](CN(C)Cc1ccc(C(F)(F)F)cc1)OCCCC[C@H](C)O2", "values": [{"measurement": "cytotoxicity call", "setting": "[1]", "value": "inactive"}, {"measurement": "growth inhibition call", "setting": "[2]", "value": "inactive"}]}
{"smiles": "O=C(C[C@@H]1C=C[C@@H](NC(=O)c2cnccn2)[C@H](CO)O1)NCc1ccccc1F", "values": [{"measurement": "cytotoxicity call", "setting": "[1]", "value": "inactive"}, {"measurement": "growth inhibition call", "setting": "[2]", "value": "inactive"}]}
{"smiles": "O=C(C[C@@H]1CC[C@H]2[C@@H](COC[C@H](O)CN2CC2CCOCC2)O1)N1CCOCC1", "values": [{"measurement": "cytotoxicity call", "setting": "[1]", "value": "inactive"}, {"measurement": "growth inhibition call", "setting": "[2]", "value": "inactive"}]}
{"smiles": "COc1ccc(S(=O)(=O)Nc2ccc3c(c2)CC(=O)N([C@@H](C)CO)C[C@H](C)[C@@H](CN(C)Cc2ccc(Cl)c(Cl)c2)O3)cc1", "values": [{"measurement": "cytotoxicity call", "setting": "[1]", "value": "inactive"}, {"measurement": "growth inhibition call", "setting": "[2]", "value": "inactive"}]}
{"smiles": "C[C@@H]1CCCCO[C@H](CN(C)Cc2ccc(C(F)(F)F)cc2)[C@@H](C)CN([C@@H](C)CO)C(=O)c2cc(NC(=O)c3ccncc3)ccc2O1", "values": [{"measurement": "cytotoxicity call", "setting": "[1]", "value": "inactive"}, {"measurement": "growth inhibition call", "setting": "[2]", "value": "inactive"}]}
{"smiles": "C[C@@H]1CN([C@H](C)CO)C(=O)c2cc(NC(=O)C3CCCCC3)ccc2O[C@@H](C)CCCCO[C@@H]1CN(C)S(=O)(=O)c1ccc(F)cc1", "values": [{"measurement": "cytotoxicity call", "setting": "[1]", "value": "inactive"}, {"measurement": "growth inhibition call", "setting": "[2]", "value": "inactive"}]}
{"smiles": "O=C([O-])C=CC(=O)[O-].[Fe+2]", "values": [{"measurement": "cytotoxicity call", "setting": "[1]", "value": "inactive"}, {"measurement": "growth inhibition call", "setting": "[2]", "value": "inactive"}]}
